Measured values taken from patent US20040091853A1 (priority 2003, published 2004).
pIC50: −log10 of the molar value.

Experiments:
[1] = test system: R8 HIV reporter particle; details: read-out: IC50 (concentration of inhibitor needed to inhibit 50% of the signal); SupT1/CCR5 cells, blue fluorescence, 3 parameter logistic fit
[2] = test system: R8.BaL HIV reporter particle; details: read-out: IC50 (concentration of inhibitor needed to inhibit 50% of the signal); SupT1/CCR5 cells, blue fluorescence, 3 parameter logistic fit

enfuvirtide showed a pIC50 [1] of 7.04 and a pIC50 [2] of 7.59.
